{
  "source": "PubChem BioAssay AID686979",
  "about": "(National Center for Advancing Translational Sciences (NCATS), 2013)",
  "note": "The campaign covered roughly 420,000 compounds. About 50,000 (12%) were called active. This list was built around the results that the source calls inconclusive (neither active nor inactive); the mix of calls is not that of the screen. Calls come from the whole dose curve; as a rule, active = well fitted inhibition curve with a large enough effect; inconclusive = small, poorly fitted or top-dose-only effect; inactive = flat fitted curve, though single readings scatter. No potency is given beside an inconclusive call; the fits are too rough. % is set by controls: 0 for no effect and ±100 for the full control effect; potency is the fitted concentration of half-maximal effect; tags give direction and shape of the fitted curve.",
  "data": [
    {"experiment": "qHTS for Inhibitors of human tyrosyl-DNA phosphodiesterase 1 (TDP1): qHTS in cells in presence of CPT; note: nearly all actives have a fitted effect of over 55% in size", "conditions": "chicken DT40 Tdp1-/-;hTDP1 cells + 20 nM CPT, ATP luminescence, 48 h; activity change, negative = growth inhibition: at 46.2 µM (top of the series)", "method_in_brief": "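Chicken DT40 Tdp1-/- cells complemented with human TDP1, 400 cells/well, exposed to compounds plus 20 nM camptothecin for at least 48 h at 37 C; viability read as ATP content by CellTiter-Glo luminescence.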", "values": [
      {"smiles": "CCC(C)C(NC(=O)c1ccccc1NC(=O)c1ccccc1)C(=O)O", "note": "(stereo unspecified)", "Potency": "inconclusive [inhibitor, single point]"},
      {"smiles": "Cc1ccc(C(=O)CSc2nnnn2-c2ccccc2)o1", "activity change, negative = growth inhibition": "inactive: 12.2%"},
      {"smiles": "C=C(C)CCC1(C)NC(=O)N(c2ccccc2)N1", "note": "(stereo unspecified)", "activity change, negative = growth inhibition": "inactive: -1.52%"},
      {"smiles": "CC1(c2nnc(Cc3ccccc3)o2)CC(c2ccccc2[N+](=O)[O-])=NO1", "note": "(stereo unspecified)", "Potency": "inconclusive [inhibitor, single point]"},
      {"smiles": "COc1ccc(C(CNC(=O)c2cc(F)c(F)c(F)c2F)N2CCOCC2)cc1", "note": "(stereo unspecified)", "Potency": "inconclusive [inhibitor, partial curve, poor fit]"},
      {"smiles": "CC(C)Cc1nc(SCC(=O)N2CCCCC2)c2c(=O)n(C)c(=O)n(C)c2n1", "Potency": "inconclusive [inhibitor, single point]"},
      {"smiles": "COCc1cc(C)nc(N2CCN(Cc3ccccc3)CC2)c1C#N", "activity change, negative = growth inhibition": "inactive: -14%"},
      {"smiles": "CCOC(=O)CCN(Cc1ccccc1)S(=O)(=O)c1csc(C(N)=O)c1", "Potency": "inactive"},
      {"smiles": "Cc1cc(Br)cn2c(Cc3ccccc3C(F)(F)F)c(-c3ccccc3)nc12", "Potency": "inconclusive [inhibitor, single point]"},
      {"smiles": "O=C(NCC1(c2ccccc2)CCCC1)C1(c2ccccc2)CCCC1", "Potency": "inconclusive [inhibitor, single point]"},
      {"smiles": "CCCCC(=O)Nc1cccc(-c2csc(-c3ccccc3)n2)c1", "Potency": "inconclusive [inhibitor, single point]"},
      {"smiles": "Cc1ccnc(NC(=O)c2cccc(S(=O)(=O)NCc3ccccc3)c2)c1", "Potency": "inconclusive [inhibitor, single point]"},
      {"smiles": "CCC(C)n1c(SCC(=O)NC2CCCC2)nc2ccccc2c1=O", "note": "(stereo unspecified)", "Potency": "inconclusive [inhibitor, single point]"},
      {"smiles": "CSc1ccccc1NC(=S)Nc1ccccc1C(F)(F)F", "activity change, negative = growth inhibition": "inactive: -1.56%"},
      {"smiles": "COc1ccc(NC(=O)c2c(NC(=O)COc3ccc(Cl)cc3)sc3c2CCCCC3)cc1", "Potency": "inconclusive [inhibitor, single point]"},
      {"smiles": "CC(C)Cn1c(N)c(C(=O)COC(=O)c2cccn2C)c(=O)n(C)c1=O", "Potency": "active: 14.6 µM"},
      {"smiles": "CCc1cccc(CC)c1-n1c(SCC(=O)N2CCc3ccccc32)nc(O)cc1=O", "activity change, negative = growth inhibition": "inactive: 0.983%"},
      {"smiles": "COC(=O)[C@@]1(C)[C@H]2C(=O)N(C)C(=O)[C@H]2[C@H]2CN=C(SC)N21", "activity change, negative = growth inhibition": "inactive: -4.73%"},
      {"smiles": "CNC(=S)N/N=C/c1cc(C)ccc1C", "Potency": "inconclusive [inhibitor, single point]"},
      {"smiles": "COCCNC(=O)c1cccc2c1C(=O)c1ccc(N3CCOCC3)cc1S2(=O)=O", "Potency": "inconclusive [inhibitor, single point]"},
      {"smiles": "COc1cc(OC)c(NC(=O)N2CCOc3ccc(C)cc32)cc1Cl", "Potency": "inconclusive [inhibitor, single point]"},
      {"smiles": "COc1ncc2nc(CCc3ccccc3)c(=O)n(Cc3cccs3)c2n1", "Potency": "inconclusive [inhibitor, single point]"},
      {"smiles": "CCOC(=O)c1c(SC)n(-c2ccccc2)c(=S)n(-c2ccccc2)c1=O", "activity change, negative = growth inhibition": "inactive: -2.19%"},
      {"smiles": "Cc1cc(C(=O)Nc2ccc(F)c(Cl)c2)on1", "activity change, negative = growth inhibition": "inactive: 0.353%"},
      {"smiles": "Cc1cc(N2CCC(C)CC2)nc(SCC(=O)c2ccccc2)n1", "Potency": "inconclusive [inhibitor, single point]"},
      {"smiles": "CCc1cc(C(=O)c2ccc(OC)cc2)c(NC(=O)CN2CCN(C)CC2)s1", "Potency": "inconclusive [inhibitor, single point]"},
      {"smiles": "COc1ccc(CNC(=O)c2oc3c(c2C)-c2nn(Cc4ccccc4Cl)cc2CC3)cc1", "Potency": "inconclusive [inhibitor, single point]"},
      {"smiles": "COC(=O)c1ccc(NC(=S)NN2CCCCC2c2cccnc2)cc1", "note": "(stereo unspecified)", "activity change, negative = growth inhibition": "inactive: 2.02%"},
      {"smiles": "CCn1c(=O)c(C(=O)NCc2ccc3c(c2)OCO3)c(O)c2ccccc21", "Potency": "inconclusive [inhibitor, single point]"},
      {"smiles": "O=C(CNS(=O)(=O)c1ccc(Cl)c(C(F)(F)F)c1)NC1CCCCC1", "Potency": "inconclusive [inhibitor, single point]"},
      {"smiles": "CC(CN1CCc2nnc(CNC(=O)c3cccc(F)c3)n2CC1)c1ccccc1", "note": "(stereo unspecified)", "activity change, negative = growth inhibition": "inactive: -3.43% [at 9.04 µM]"},
      {"smiles": "Cc1cc2ccccn2c1C(=O)c1ccc(Cl)c([N+](=O)[O-])c1", "Potency": "active: 20.6 µM"},
      {"smiles": "Cc1ccc(/C=N/NC(=O)c2cccc(S(=O)(=O)Nc3ccccc3Cl)c2)s1", "activity change, negative = growth inhibition": "inactive: -26.7%"},
      {"smiles": "CCOC(=O)[C@]12CCC=C1N(Cc1ccccc1)C(=O)[C@H](CC(=O)N1CCN(C(=O)c3ccco3)CC1)C2", "activity change, negative = growth inhibition": "inactive: -7.43%"},
      {"smiles": "Cc1cc(Oc2ccc3ccccc3c2)nc(SCC(=O)c2ccccc2)n1", "Potency": "active: 20.6 µM"},
      {"smiles": "Nc1nc2ccc(Cl)cc2cc1C(=O)NCc1ccc(Oc2ccccc2)cc1", "Potency": "active: 0.651 µM"}
    ]}
  ]
}
